# The campaign covered roughly 360,000 compounds. About 7,500 (2.1%) were called active. The shares of active, inactive and inconclusive entries below differ from those in the screen. The call rests on the fitted dose curve; in most records, active means well fitted cell-killing curve with a large enough effect; inconclusive means small, poorly fitted or top-dose-only effect, or effect the other way, or another doubt; inactive means no such curve, though single readings can be large or run the other way. No potency is given beside an inconclusive call; the fits are too rough.
# Test: qHTS for induction of synthetic lethality in tumor cells producing 2HG: qHTS for the HT-1080-IDH1KD cell line;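 on activity, negative = toxicity: 0% = DMSO wells and -100% = cell-free medium wells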
# Settings: HT-1080 IDH1 knockdown viability, ATP luminescence, 48 h; activity, negative = toxicity: at 46.1 µM (top of the series) unless noted
# Method in brief: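 Using the IDH1-knockdown HT-1080 line run in the same batch and compound series as the NT line, viability after 48 h at 37 °C was determined by CellTiter-Glo luminescence and expressed as % activity.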
# Potency means the concentration at half of the fitted maximal effect; tags describe the fitted curve by direction and shape.
Structure (SMILES),Potency,"activity, negative = toxicity"
CN(C)C(=S)SSC(=S)N(C)C,"inconclusive [cytotoxic, full curve, poor fit]",
COc1cccc(NP(=O)(Oc2ccccc2)Oc2ccccc2)c1,"inconclusive [cytotoxic, single point]",
CC(C)C(=O)N1CCC(CN=Cc2c(O)n(C3CCCCC3)c(=O)n(C3CCCCC3)c2=O)CC1,"inconclusive [cytotoxic, single point]",
CCC(=Nc1ccc(OC)cc1OC)c1c(O)n(C)c(=O)n(C)c1=O,"inconclusive [cytotoxic, partial curve]",
CCOC(=O)[C@]12Cc3cc(C)ccc3[C@H]1N(Cc1ccccc1)C(=O)c1cc(OC)ccc12,active: 20.6 µM,
Cc1cccc(NP(C)(=O)c2nc3c(s2)CCCC3)c1 (stereo unspecified),,inconclusive: 30.4%
Cn1c(=O)c2c(nc(N/N=C/c3c(O)n(C4CCCCC4)c(=S)[nH]c3=O)n2C)n(C)c1=O,,inactive: -20.4%
N#CC(C#N)=Cc1ccc(C=C(C#N)C#N)cc1,active: 23.1 µM,
CC1=NN(c2ccccc2)C(=O)/C1=C/c1c(O)[nH]c(=O)[nH]c1=O,"inconclusive [rising, partial curve]",
CCCCn1c(=O)c(C(=O)Nc2ncccc2C)c(O)c2ccccc21,active: 16.4 µM,
COc1ccc(NC(=O)CSc2nnc(Cc3cccn3C)n2CCc2ccccc2)c(OC)c1,"inconclusive [cytotoxic, single point]",
Cc1cccc(C)c1-n1nnnc1C(c1cc2ccccc2o1)N1CCC(n2c(=O)[nH]c3ccccc32)CC1 (stereo unspecified),"inconclusive [cytotoxic, full curve]",
COc1cc2c3cc1Oc1c(OC)c(OC)cc4c1[C@H](Cc1ccc(cc1)Oc1cc(ccc1O)C[C@H]3N(C)CC2)N(C)CC4,"inconclusive [cytotoxic, partial curve]",
CCCCn1nnnc1C(c1cccc2ccccc12)N1CCC2(CC1)C(=O)NCN2c1ccccc1 (stereo unspecified),"inconclusive [cytotoxic, single point]",
Cc1ccc(N2C(=O)NC(=O)/C(=C/C=C/c3ccco3)C2=O)cc1,active: 23.1 µM,
CCCC(C)C1(CC)C(=O)NC(=Nc2ccc(F)cc2)NC1=O (stereo unspecified),"inconclusive [cytotoxic, single point]",
COc1ccc(NC(=O)N2CCN(c3nc(-c4cccc(OC)c4)cs3)CC2)cc1,"inconclusive [cytotoxic, single point]",
CCCOP(=O)(OCCC)C(NC(=O)c1ccccc1)=C(Cl)Cl,,inactive: 0.262%
Cc1ccc(C(=O)N[C@@H](C)CN2C3=NC[C@H](Cc4ccccc4)N3C[C@H]2Cc2ccc(O)cc2)cc1Br,"inconclusive [cytotoxic, single point]",
O=c1[nH]c2ccccc2n1C1CCN(C(c2ccccc2OC(F)(F)F)c2nnnn2Cc2ccccc2)CC1 (stereo unspecified),"inconclusive [cytotoxic, single point]",
C=CCN=C(SCC(=O)c1ccc(Cl)cc1)c1c(O)n(C)c(=O)n(C)c1=O,"inconclusive [cytotoxic, single point]",

Structure (SMILES),Potency,"activity, negative = toxicity"
COc1cc2c(c(OC)c1OC)-c1ccc(O)c(=O)cc1[C@@H](NC(C)=O)CC2,active: 5.17 µM,
O=C(Cc1cccs1)N1CCC(c2nc3c(nnn3Cc3ccccc3Cl)c(=O)[nH]2)CC1,"inconclusive [cytotoxic, single point]",
COC(=O)C1=C(c2ccc(Cl)c(C(F)(F)F)c2)C[C@@H]2CC[C@H]1N2C(=O)NCCOc1ccccc1,,inactive: -14%
CC[C@@H](O)C[C@H]1CCC[C@@]2(C[C@@H]3OC(=O)/C=C/[C@@](C)(O)[C@@H](O)[C@H](C)[C@@H](O)[C@H](OC4CCC(N(C)C)C(C)O4)[C@@H](O)[C@](C)(O)CCCCC/C=C/[C@@H]4CC(C)(C)O[C@@]4(O)C[C@H](O2)[C@H]3C)O1 (stereo partly specified),"inconclusive [cytotoxic, partial curve, poor fit]",
O=C1NC(=O)N(Cc2ccc(F)cc2)C(=O)/C1=C/c1cccs1,"inconclusive [cytotoxic, single point]",
C=C1C(=O)O[C@H]2C[C@@H](C)[C@@H]3C=CC(=O)[C@@]3(C)C[C@H]12,active: 8.2 µM,
Cc1cccc(N2C(=O)NC(=O)/C(=C\c3cccn3-c3ccc(Cl)cc3)C2=O)c1,"inconclusive [cytotoxic, single point]",
Cc1cccc(-n2c(/C=C/c3ccc([N+](=O)[O-])o3)nc3ccccc3c2=O)c1,,inconclusive: -0.529% [cytotoxic]
CCOc1cc2c(cc1OCC)-n1cccc1C(c1ccc(C)cc1C)NC2 (stereo unspecified),active: 20.6 µM,
Cc1sc(NC(=O)Cn2c(=O)oc3ccccc32)nc1-c1ccc(Cl)cc1,"inconclusive [cytotoxic, single point]",
N#Cc1ccc(Cn2cc(C(=O)c3ccco3)c3ccccc32)cc1,"inconclusive [cytotoxic, partial curve]",
CCOC(=O)CNC(=O)CNC(=O)C(Cc1ccc(N(CCCl)CCCl)cc1)NC(C)=O (stereo unspecified),,inactive: -2.05%
O=C(NCc1cccnc1)c1ccc(COc2ccc3c(c2)CCC3)o1,"inconclusive [cytotoxic, single point]",
NCC(CC(=O)O)C1CCCCC1 (stereo unspecified),,inactive: -1.49%
CCOP(=O)(c1ccccc1)c1nc(-c2ccc(F)cc2)oc1N1CCCCC1 (stereo unspecified),"inconclusive [cytotoxic, single point]",
O=c1c2ccccc2nc(SCc2nc3ccccc3s2)n1Cc1ccco1,"inconclusive [cytotoxic, partial curve, poor fit]",
Cn1c(NN=O)nc2ccccc21,active: 4.61 µM,
COc1cccc(CNCCc2ccccc2)c1OC,,inactive: -2.65%
N#CC1=C(N)Oc2c(c(=O)sc3ccccc23)C1c1ccncc1 (stereo unspecified),active: 20.6 µM,
COc1cc([C@@H]2c3cc4c(cc3[C@H](O)[C@H]3COC(=O)[C@H]23)OCO4)cc(OC)c1OC,active: 0.0065 µM,
